In PubChem BioAssay AID1508623 (National Center for Advancing Translational Sciences (NCATS), 2021):
The whole screen tested about 48,000 compounds, of which about 450 (0.94%) were called active. Inconclusive results (about 19%) are left out. Calls come from the whole dose curve; as a rule, active = well fitted inhibition curve with a large enough effect; inconclusive = small, poorly fitted or top-dose-only effect; inactive = no such curve, though single readings can be large or run the other way. This is one part of the list.

Experiment: Primary qHTS for Identification of Small Molecule Inhibitors of Huntingtin Promoter Activity; note: nearly all actives have a fitted effect of over 50% in size
Details: HEK293 HTT promoter firefly luciferase reporter (activity 0% = vehicle and -100% = no light), 24 h; series mostly up to 57.5 µM; activity change, negative = inhibition: at the top concentration
Method in brief: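 Luminescence was read after Dual-Glo reagent and a 10 min room-temperature incubation. Values were normalized to vehicle (0% activity) and zero RLU (-100% activity). Reporter HEK293 cells had been exposed to compounds (up to 57.5 uM final) for 24 h.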

Row | Compound | activity change, negative = inhibition
1 | O=C(Cn1cc(S(=O)(=O)c2ccc(Cl)cc2)c(=O)c2ccccc21)Nc1ccc2c(c1)OCO2 | inactive: -30%
2 | COc1ccc(CNS(=O)(=O)c2ccc3c(c2)NC(=O)C(C)C(=O)N3)cc1 (configuration not stated) | inactive: -20.7%
3 | Cc1nnc(N2CCC(C(=O)N3CCCCC3)CC2)c2nn(-c3ccccc3)c(C)c12 | inactive: -13.9%
4 | Cc1ccc(C)c(Nc2ncnc3c2cnn3-c2ccc(F)cc2)c1 | inactive: 31.1%
5 | COc1ccc(CNc2n[nH]c(-c3ccco3)n2)cc1OC | inactive: -9.71%
6 | CCc1ccc(Nc2ncnc3sc4c(c23)CCCC4)cc1 | inactive: -23.8%
7 | COc1cc(NC(=O)Cn2c(=O)n(Cc3ccccc3Cl)c(=O)c3cc(OC)c(OC)cc32)cc(OC)c1 | inactive: -5.19%
8 | CCCc1c(C(=O)OCC)nnc2c(-c3ccccc3)c(C)nn12 | inactive: -8.09%
9 | COc1ccc(CCN2C(=O)N(c3ccc(F)cc3)C(=O)C2CC(=O)Nc2ccccc2)cc1OC (configuration not stated) | inactive: -8.81%
10 | O=C(c1ccc(Nc2nc3ccccc3n3nnnc23)cc1)N1CCN(c2ccc(F)cc2)CC1 | inactive: -8.01%
11 | COc1cc(NC(=O)c2cc3nc(-c4ccc(C)cc4)cc(C(F)(F)F)n3n2)cc(OC)c1OC | inactive: -8.77%
12 | CCc1ccc(NC(=O)c2cc(S(=O)(=O)N3CCCCC3)c[nH]2)cc1 | inactive: 0.528%
13 | COc1ccc(OCc2ccc(-c3nc(C#N)c(N4CCC(C(N)=O)CC4)o3)o2)cc1 | inactive: -16.8%
14 | Cc1ccc(CNC(=O)c2nnn(Cc3ccc(F)cc3)c2N)cc1 | inactive: -12.2%
15 | O=S(=O)(Nc1ccc(F)cc1F)c1ccc(Br)s1 | inactive: -24.7%
16 | O=C(Nc1cc(-c2nc3cc(Cl)ccc3o2)ccc1Cl)c1cccc2ccccc12 | inactive: 24.6%
17 | CCn1c2c(c(=O)n3ncc(C(=O)Nc4ccc(OC(F)(F)F)cc4)c13)CN(Cc1ccc(OC)cc1)CC2 | inactive: -16.7%
18 | Cc1ccc2c(c1)cc1c(=O)n(CC(=O)NC(C)CCc3ccccc3)nc(C)n12 (configuration not stated) | inactive: -2.81%
19 | Cn1c2c(c(=O)n(C)c1=O)C(c1ccccc1[N+](=O)[O-])CC(=O)N2 (configuration not stated) | inactive: -4.27%
20 | COc1ccccc1CNc1ccc(-c2nc(-c3ccccc3C)no2)cc1[N+](=O)[O-] | inactive: -6.08%
21 | CCOc1nc(NC(=O)NS(=O)(=O)Oc2cccc(Cl)c2)nc(-c2ccccc2)n1 | inactive: 45.2%

Row | Compound | activity change, negative = inhibition
22 | CC1CCn2c(nc3cc(C(=O)NCc4ccc(F)cc4)ccc32)C1 (configuration not stated) | inactive: 9.72%
23 | CCOC(=O)c1nn2c(C(F)(F)F)cc(-c3ccc(C)cc3)nc2c1Cl | inactive: 0.198%
24 | CCCCC(=O)Nc1nnc(SCc2cc(=O)n3cc(C)ccc3n2)s1 | inactive: -5.77%
25 | Cc1ccc(CNC(=O)CSc2nc(=O)n(Cc3ccco3)c3c2CCC3)cc1 | inactive: 8.69%
26 | COc1ccc(-c2c(C#N)c(SCC(=O)Nc3ccc(C)cc3)nc(C)c2C(=O)Nc2ccccc2)cc1 | inactive: -14.8%
27 | CC(C)(C)NCC(O)c1ccc(O)c(CO)c1 (configuration not stated) | inactive
28 | COc1cccc(CNC(=O)CN2CCCN(Cc3ccccc3)S2(=O)=O)c1 | inactive: -9.29%
29 | CCOc1ccc(-n2nc3ccc(NC(=O)c4cccc(F)c4)cc3n2)cc1 | inactive: -16.4%
30 | CCOc1ccc(-c2nnc(SCC(=O)NC(C)CC)nc2-c2ccc(OCC)c(OC)c2)cc1OC (configuration not stated) | inactive: -2.46%
31 | COc1cc(C(=O)Nc2cccc(OCc3cc(=O)n4cc(C)sc4n3)c2)cc(OC)c1OC | inactive: 1.46%
32 | CC(=O)Nc1nonc1-c1nnc(SCC(=O)Nc2cccc(C)c2C)n1-c1ccccc1 | inactive: -15.4%
33 | Cc1nn(C)c(C)c1CCNC(=O)Nc1cccc(Cl)c1C | inactive: 5.93%
34 | COc1ccc(Cn2cc(C(=O)c3ccc(F)cc3)c(=O)c3cc4c(cc32)OCCO4)cc1 | inactive: -29.7%
35 | COc1ccc(-c2nc3ccccc3o2)cc1NC(=O)c1ccc(-c2ccc(Br)cc2)o1 | inactive: 4.2%
36 | CCCCc1nn2c(=O)cc(COC(=O)c3ccco3)nc2s1 | inactive: -4.82%
37 | Cc1cccc(NC(=O)C2CCCN(S(=O)(=O)c3c(C)n[nH]c3C)C2)c1 (configuration not stated) | inactive: -21.6%
38 | CCC(C(=O)Nc1ccccc1)n1nc(-c2cc(C)ccc2C)ccc1=O (configuration not stated) | inactive: -23.3%
39 | CCN1C(=O)N(c2ccc(C(C)=O)cc2)S(=O)(=O)c2ccccc21 | inactive: -13.4%
40 | CSc1ccc(CCNC(=O)Cn2ncn3c(cc4ccccc43)c2=O)cc1 | inactive: -0.131%
41 | CCOc1ccc(-n2c(=O)c3c(C)c(C)sc3n(CC(=O)Nc3ccc(CC)cc3)c2=O)cc1 | inactive: -16.1%
42 | CCN(C(=O)c1cc2c(=O)n(CC)c3ccccc3c2s1)c1cccc(C(F)(F)F)c1 | inactive: 2.35%

Row | Compound | activity change, negative = inhibition
43 | Cn1nc(-c2ccc(OCC(=O)Nc3ccc(Cl)cc3)cc2)c2ccccc2c1=O | inactive: -23.1%
44 | COc1ccc(Br)cc1CNC(=O)c1cnc2sc(N3CCCCCC3)nn2c1=O | inactive: -20.8%
45 | O=C(CSc1cn(CCNC(=O)c2ccccc2F)c2ccccc12)Nc1ccc(F)cc1 | inactive: -19.2%
46 | COc1cccc(N2C(=O)CSC23C(=O)N(CC(=O)Nc2cccc(Cl)c2)c2ccccc23)c1 (configuration not stated) | inactive: -25.7%
47 | CN1CC(=O)N2C(Cc3c([nH]c4ccccc34)[C@H]2c2ccc3c(c2)OCO3)C1=O (some centres not stated) | inactive: -16.3%
48 | COc1cc(CN(C(=O)COc2ccccc2Cl)c2ccccn2)cc(OC)c1OC | inactive: -27.1%
49 | CCn1c(C)c(C)c2cc(C(=O)N3CCN(c4cccc(C)c4C)CC3)ccc21 | inactive: -7.43%
50 | CCOc1ccc(-n2c(=O)c3c4c(sc3n(CC(=O)NC(C)CC)c2=O)CCC4)cc1 (configuration not stated) | inactive: 19.2%
51 | O=S(=O)(c1ccc(Cl)cc1)c1nnn2c1nc(NCc1cccs1)c1sccc12 | inactive: -26.5%
52 | COc1ccc(CC(=O)Nc2cc(-c3nc4cccnc4s3)ccc2C)cc1 | inactive: 47.3%
53 | CN(C)S(=O)(=O)N(CC(=O)NCCSCc1cccc(Cl)c1)c1ccccc1 | inactive: -29.1%
54 | CCC(=O)Nc1ccc2nc(SCc3ccccc3)sc2c1 | inactive: 4.87%
55 | CCC(CC)C(=O)N1CCc2cc(OC)c(OC)cc2C1COc1ccc(C(=O)OC)cc1 (configuration not stated) | inactive: -29.4%
56 | COc1ccc(C)cc1NC(=O)CSc1nc(=O)[nH]c2c1CCCC2 | inactive: -29.4%
57 | CCOc1ccc(-n2cc(-c3ccccc3)c3c(N4CCC(C)CC4)ncnc32)cc1 | inactive: -21.5%
58 | CCOc1ccccc1NC(=O)C(=O)c1cc(C)n(-c2ccc(F)cc2)c1C | inactive: 25.4%
59 | COc1ccc(-c2nnc(Nc3ccc(OC)c(C(N)=O)c3)c3ccccc23)cc1 | inactive: -16.7%
60 | CCc1ccc2oc(-c3cccc(NC(=O)C(C)(C)Oc4ccc(Br)cc4)c3)nc2c1 | inactive: 10.6%
61 | Cc1cc(C)cc(Nc2ncnc3onc(-c4ccc(F)cc4)c23)c1 | inactive: -17.4%
62 | Cc1ccc(Nc2c(-c3ccc(C)cc3)nc3ccc(C)cn23)cc1 | inactive: 38.8%
